{
  "source": "PubChem BioAssay (NCATS)",
  "note": "“And” between values parts separate entries of the source, which are not always exact repeats. Equal values may be shown once. Inconclusive results, whose numbers are uncertain, are shown with a selection of clear calls. Potencies of inconclusive entries are doubtful fits and often do not repeat. The source made the active and inactive calls. The call rests on the fitted dose curve; in most records, active means well fitted inhibition curve with a large enough effect; inconclusive means small, poorly fitted or top-dose-only effect; inactive means no such curve, though single readings can be large or run the other way. Potency means the concentration at half of the fitted maximal effect; tags describe the fitted curve by direction and shape.",
  "data": [
    {"experiment": "Primary qHTS for inhibitors of nuclear receptor binding SET domain protein 2 (NSD2) in an RCH-ACV wild type WT cells (2C) (AID 1645877); further: nearly all actives have a fitted effect of over 70% in size", "settings": "RCH-ACV NSD2 WT (2C) viability, CellTiter-Glo, 72 h; series mostly up to 44.9 µM", "values": [
      {"smiles": "CCOP(=S)(OCC)O/N=C(\\C#N)c1ccccc1", "Potency": "inconclusive: 26.6 µM [inhibitor, single point]"},
      {"smiles": "O=C(CCCN1CCC2(CC1)C(=O)NCN2c1ccccc1)c1ccc(F)cc1", "Potency": "inconclusive: 4.73 µM [inhibitor, full curve]"},
      {"smiles": "CC(C)(C)C(O)C(Oc1ccc(Cl)cc1)n1cncn1", "note": "(stereo not given)", "Potency": "inconclusive: 38.6 µM [inhibitor, single point]"},
      {"smiles": "Nc1ccncc1", "Potency": "inactive"},
      {"smiles": "O=C(Nc1ccncc1)C(=O)c1cn(Cc2ccc(Cl)cc2)c2ccccc12", "Potency": "active: 0.235 µM"},
      {"smiles": "N[C@@H]1C[C@H]1c1ccccc1", "Potency": "inconclusive: 29.9 µM [inhibitor, single point] and inconclusive: 33.2 µM [inhibitor, single point]"},
      {"smiles": "CCO/N=C(\\CC)C1=C(O)CC(c2c(C)cc(C)cc2C)CC1=O", "note": "(stereo not given)", "Potency": "inconclusive: 43.3 µM [inhibitor, partial curve, poor fit]"},
      {"smiles": "CC(=O)C1CCC2C3CCC4C[C@@H](O)CCC4(C)C3CCC12C", "note": "(stereo not given in full)", "Potency": "inconclusive: 14.5 µM [inhibitor, partial curve]"},
      {"smiles": "C[C@H]1CNCCc2ccc(Cl)cc21", "Potency": "inconclusive: 29.9 µM [inhibitor, partial curve, poor fit]"},
      {"smiles": "NC1=NC(=O)N2CC12", "note": "(stereo not given)", "Potency": "inactive"},
      {"smiles": "COC1C(O)C(C)OC(OC2C(CO)O[C@@H](O[C@@H]3CC4CCC5C(CC[C@]6(C)[C@@H](C7=CC(=O)OC7)CC[C@]56O)[C@@]4(C)[C@H](O)C3)C(O)C2O)C1O", "note": "(stereo not given in full)", "Potency": "active: 0.483 µM"},
      {"smiles": "NCCc1cc(O)c(O)cc1O", "Potency": "inconclusive: 23.7 µM [inhibitor, single point]"},
      {"smiles": "O=C(N1CCCCC1Cc1ccccc1)n1cc(-c2ccc(-c3ccccc3)cc2)nn1", "note": "(stereo not given)", "Potency": "inconclusive: 20.5 µM [inhibitor, single point]"},
      {"smiles": "Oc1ccc(Cl)cc1Cc1ccccc1", "Potency": "active: 34.7 µM and inconclusive: 23.7 µM [inhibitor, single point]"},
      {"smiles": "CCN[C@H](C)Cc1cccc(C(F)(F)F)c1", "Potency": "inconclusive: 38.6 µM [inhibitor, partial curve, poor fit]"},
      {"smiles": "COc1cc(CC(C)N)cc2c1OCO2", "note": "(stereo not given)", "Potency": "inconclusive: 20.2 µM [inhibitor, partial curve, poor fit]"},
      {"smiles": "CN(Cc1cccc(-c2ccncc2)c1)C(=O)Oc1ccc(-c2ccc(C(N)=O)cc2)cc1", "Potency": "inconclusive: 5.78 µM [inhibitor, partial curve, poor fit]"},
      {"smiles": "CCCSP(=O)(OCC)SCCC", "Potency": "inconclusive: 71.4 µM [inhibitor, partial curve, poor fit]"},
      {"smiles": "NCC(O)c1ccc(O)cc1", "note": "(stereo not given)", "Potency": "inconclusive: 23.7 µM [inhibitor, single point]"},
      {"smiles": "CCCCC/C=C\\C/C=C\\C/C=C\\C/C=C\\CCCC(=O)NCC(=O)O", "Potency": "inconclusive: 29.9 µM [inhibitor, single point]"}
    ]}
  ]
}
